Measured values: the BET-seq Pho4 binding data (Le et al. 2018)
The other results are listed elsewhere or left out. Values were computed here from the reads of four pooled replicates and scatter widely.

Molecular target: T1, Pho4 (S. cerevisiae) (UniProt P07270)
T1 sequence: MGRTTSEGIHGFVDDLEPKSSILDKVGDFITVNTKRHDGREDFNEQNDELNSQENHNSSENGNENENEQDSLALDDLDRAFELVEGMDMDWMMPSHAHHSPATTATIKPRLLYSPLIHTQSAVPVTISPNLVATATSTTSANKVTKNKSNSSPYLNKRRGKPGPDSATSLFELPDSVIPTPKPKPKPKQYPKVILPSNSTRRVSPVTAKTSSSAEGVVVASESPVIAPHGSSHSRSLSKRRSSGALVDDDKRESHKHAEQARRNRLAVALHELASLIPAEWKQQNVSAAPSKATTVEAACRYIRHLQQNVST
Test: relative binding free energy (BET-seq); higher = weaker binding
Conditions: reference: library average

Q: With TGAGACACGTGTAGGA as the sequence, how does the “relative binding free energy” value read?
A: 0.04 kcal/mol

Q: Which “relative binding free energy” value does the source give for GCATTCACGTGGGTGG here?
A: 0.1 kcal/mol

Q: Which “relative binding free energy” value does the source give for TTTTTCACGTGTCATG here?
A: 0.24 kcal/mol

Q: For GGGGACACGTGCGCGG, which “relative binding free energy” value is on record?
A: -0.08 kcal/mol

Q: How did the “relative binding free energy” value turn out when CTATTCACGTGAGGAT was run?
A: 0.44 kcal/mol

Q: For TTGGGCACGTGAGGGG, which “relative binding free energy” value is on record?
A: 0.18 kcal/mol

Q: Which “relative binding free energy” value does the source give for CGGGGCACGTGGGTGG here?
A: -0.18 kcal/mol

Q: TGATGCACGTGGGGGC was tested. Which “relative binding free energy” value did it give?
A: -0.11 kcal/mol

Q: With GAGGACACGTGTAGGC as the sequence, how does the “relative binding free energy” value read?
A: 0.07 kcal/mol

Q: Which “relative binding free energy” value does the source give for AGCCTCACGTGGGTTG here?
A: 0.02 kcal/mol

Q: How did the “relative binding free energy” value turn out when TTAAACACGTGAGGTT was run?
A: 0.11 kcal/mol

Q: Which “relative binding free energy” value does the source give for GGAAACACGTGTGTCT here?
A: 0.18 kcal/mol

Q: With TTTGACACGTGGTGAC as the sequence, how does the “relative binding free energy” value read?
A: 0 kcal/mol

Q: How did the “relative binding free energy” value turn out when GGCCTCACGTGGTATT was run?
A: 0.26 kcal/mol

Q: Which “relative binding free energy” value does the source give for TAGTGCACGTGGGAAG here?
A: -0.13 kcal/mol

Q: How did the “relative binding free energy” value turn out when GAGGTCACGTGCGGTG was run?
A: 0.19 kcal/mol

Q: Which “relative binding free energy” value does the source give for TTGTTCACGTGAAAAG here?
A: 0.27 kcal/mol

Q: Which “relative binding free energy” value does the source give for TACGGCACGTGGGAGT here?
A: -0.13 kcal/mol

Q: How did the “relative binding free energy” value turn out when TGCGACACGTGTTTTA was run?
A: 0.05 kcal/mol

Q: With TGCGTCACGTGGTCGT as the sequence, how does the “relative binding free energy” value read?
A: -0.1 kcal/mol

Q: With AAATGCACGTGGGTGT as the sequence, how does the “relative binding free energy” value read?
A: -0.05 kcal/mol

Q: Which “relative binding free energy” value does the source give for ATGGGCACGTGTCTGG here?
A: -0.14 kcal/mol

Q: With TGTCGCACGTGTAGCG as the sequence, how does the “relative binding free energy” value read?
A: -0.13 kcal/mol

Q: GTGCGCACGTGTGTGA was tested. Which “relative binding free energy” value did it give?
A: 0 kcal/mol

Q: Which “relative binding free energy” value does the source give for TGTTCCACGTGTCATG here?
A: 0.06 kcal/mol

Q: For ATTGGCACGTGGCATA, which “relative binding free energy” value is on record?
A: -0.22 kcal/mol

Q: How did the “relative binding free energy” value turn out when CAGGGCACGTGGATGT was run?
A: -0.05 kcal/mol

Q: How did the “relative binding free energy” value turn out when TGACGCACGTGGCGGT was run?
A: -0.21 kcal/mol

Q: With GTGGACACGTGTGGAA as the sequence, how does the “relative binding free energy” value read?
A: 0.01 kcal/mol

Q: With TGAGGCACGTGAGGTT as the sequence, how does the “relative binding free energy” value read?
A: 0.23 kcal/mol

Q: GTTAACACGTGGTGGG was tested. Which “relative binding free energy” value did it give?
A: 0.02 kcal/mol

Q: AGTGACACGTGGTCTT was tested. Which “relative binding free energy” value did it give?
A: -0.11 kcal/mol

Q: How did the “relative binding free energy” value turn out when GAGTCCACGTGTTTGG was run?
A: 0.34 kcal/mol

Q: For CTGGGCACGTGTAAGT, which “relative binding free energy” value is on record?
A: 0.1 kcal/mol

Q: With CAGCTCACGTGGGTGT as the sequence, how does the “relative binding free energy” value read?
A: 0.01 kcal/mol

Q: How did the “relative binding free energy” value turn out when ATTAACACGTGGTAAT was run?
A: 0.02 kcal/mol

Q: GATTGCACGTGGTAAA was tested. Which “relative binding free energy” value did it give?
A: 0.12 kcal/mol

Q: For GTGTGCACGTGAGTTT, which “relative binding free energy” value is on record?
A: 0.25 kcal/mol

Q: How did the “relative binding free energy” value turn out when CAGTGCACGTGGTTTA was run?
A: -0.07 kcal/mol

Q: How did the “relative binding free energy” value turn out when CGTGGCACGTGATATT was run?
A: -0.05 kcal/mol

Q: With AGGCGCACGTGTTGCG as the sequence, how does the “relative binding free energy” value read?
A: -0.16 kcal/mol

Q: For GTAGACACGTGGTGTA, which “relative binding free energy” value is on record?
A: 0.04 kcal/mol

Q: For GGCGGCACGTGAAGCG, which “relative binding free energy” value is on record?
A: 0.24 kcal/mol

Q: With ATCTTCACGTGATTTA as the sequence, how does the “relative binding free energy” value read?
A: 0.26 kcal/mol

Q: TTGAGCACGTGCTATT was tested. Which “relative binding free energy” value did it give?
A: -0.08 kcal/mol

Q: ATGCACACGTGGTGCT was tested. Which “relative binding free energy” value did it give?
A: 0.04 kcal/mol

Q: AAAAGCACGTGTGGCG was tested. Which “relative binding free energy” value did it give?
A: -0.14 kcal/mol

Q: AGTCACACGTGGGGAG was tested. Which “relative binding free energy” value did it give?
A: -0.07 kcal/mol

Q: How did the “relative binding free energy” value turn out when TGATTCACGTGGTGGA was run?
A: 0.26 kcal/mol

Q: TGCTACACGTGTTAGG was tested. Which “relative binding free energy” value did it give?
A: 0.1 kcal/mol

Q: CGTGGCACGTGTATGA was tested. Which “relative binding free energy” value did it give?
A: 0 kcal/mol

Q: With TGTTACACGTGGTCAG as the sequence, how does the “relative binding free energy” value read?
A: -0.11 kcal/mol

Q: GTTCGCACGTGGGTCG was tested. Which “relative binding free energy” value did it give?
A: -0.12 kcal/mol

Q: For GTTTGCACGTGCGTAA, which “relative binding free energy” value is on record?
A: -0.07 kcal/mol

Q: How did the “relative binding free energy” value turn out when GTGTTCACGTGGTAGC was run?
A: 0.29 kcal/mol

Q: Which “relative binding free energy” value does the source give for TTCTGCACGTGTAGGA here?
A: 0.11 kcal/mol

Q: For TAAGACACGTGGTTGG, which “relative binding free energy” value is on record?
A: 0.01 kcal/mol

Q: With TGGTACACGTGGTATC as the sequence, how does the “relative binding free energy” value read?
A: -0.14 kcal/mol
